The values below come from the supplement of paper PMC10369915.

This is one part of the list. Rule as the data show it: active = 3.2 or more and inactive = the rest. Only a few entries rise above the background.
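Also: displayed peptides selected on beads carrying the immobilized SH2 domain, with library peptides lacking any tyrosine serving as negative controls.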

The first assay addresses SHP2 C-SH2 domain E139D. In words: enrichment score (SH2-bound / input frequency) (ratio); bacterial display of known human phosphotyrosine sites (pTyr-Var adds point mutants) read by sequencing; higher = stronger binding; tyrosines were phosphorylated by kinases first. The conditions noted are these: peptide library: pTyr-Var.
Take VTVLDYDKIGK [SYT1_Y365]: the enrichment score is inactive: 0.91.

On to APGDAYGDAGF [SYP_Y250_YF], for which the enrichment score was inactive: 0.515.

In the case of RQSHNYLGGFA [SYK_Y47_R45H], the enrichment score is inactive: 0.613.

With KEAQVYQAFRL [SUCLG2_Y343_K347R], the enrichment score was inactive: 0.807.

Turning to SFCFRYRCAPR [SUMF1_Y344_A348P_YF], the enrichment score is inactive: 0.268.

Regarding GFQPEYGQPAG [SYP_Y278_D277E_YF], the enrichment score is inactive: 0.371.

With YRKNTYNVKST [SYNE2_Y575_I574T], the enrichment score is inactive: 0.447.

For KEAQVYQAFKL [SUCLG2_Y343], the enrichment score was inactive: 0.66.

Consider EYLHKYKGFKI [SYNE1_Y6953_Q6951H], for which the enrichment score is inactive: 0.76.

Take TVHCDYLNIPH [TAF1L_Y1385]: the enrichment score was inactive: 1.42.

For GESKDYALHVG [SVIL_Y185], the enrichment score is inactive: 0.648.

Take GLSDPYVKIHL [SYT2_Y309]: the enrichment score was inactive: 1.02.

Take EFLQKYKGFKI [SYNE1_Y6953_YF]: the enrichment score is inactive: 0.755.

As for REVPVYISEDS [SYNM_Y460_G462S], the enrichment score was inactive: 0.757.

Take GLSAPYVKIHL [SYT2_Y309_D307A]: the enrichment score is inactive: 1.07.

Take AAVPAYDKIQV [STXBP2_Y401_R405Q]: the enrichment score was inactive: 0.678.

In the case of EFLHKYKGFKI [SYNE1_Y6953_Q6951H_YF], the enrichment score is inactive: 0.726.

As to RQSRNYLGGFA [SYK_Y47], the enrichment score is inactive: 0.439.

In the case of GLSDLYVKIHL [SYT2_Y309_P308L], the enrichment score was inactive: 1.85.

The next assay concerns the target SHP2 C-SH2 domain wild-type. Described as above. The conditions noted are these: peptide library: pTyr-Var.
VTVLDYDKIGK [SYT1_Y365]: the enrichment score was inactive: 0.843.

For the molecule APGDAYGDAGF [SYP_Y250_YF], the enrichment score is inactive: 0.438.

As for RQSHNYLGGFA [SYK_Y47_R45H], the enrichment score is inactive: 0.604.

For the molecule KEAQVYQAFRL [SUCLG2_Y343_K347R], the enrichment score was inactive: 0.674.

With SFCFRYRCAPR [SUMF1_Y344_A348P_YF], the enrichment score was inactive: 0.291.

Take GFQPEYGQPAG [SYP_Y278_D277E_YF]: the enrichment score was inactive: 0.455.

Turning to YRKNTYNVKST [SYNE2_Y575_I574T], the enrichment score is inactive: 0.372.

Turning to KEAQVYQAFKL [SUCLG2_Y343], the enrichment score was inactive: 0.903.

Take EYLHKYKGFKI [SYNE1_Y6953_Q6951H]: the enrichment score is inactive: 0.62.

Take TVHCDYLNIPH [TAF1L_Y1385]: the enrichment score is inactive: 1.75.

As to GESKDYALHVG [SVIL_Y185], the enrichment score was inactive: 0.52.

Turning to GLSDPYVKIHL [SYT2_Y309], the enrichment score was inactive: 1.28.

As to EFLQKYKGFKI [SYNE1_Y6953_YF], the enrichment score was inactive: 0.92.

As for REVPVYISEDS [SYNM_Y460_G462S], the enrichment score is inactive: 1.02.

GLSAPYVKIHL [SYT2_Y309_D307A]: the enrichment score is inactive: 2.62.

Take AAVPAYDKIQV [STXBP2_Y401_R405Q]: the enrichment score was inactive: 0.904.

For the molecule EFLHKYKGFKI [SYNE1_Y6953_Q6951H_YF], the enrichment score was inactive: 0.975.

Take RQSRNYLGGFA [SYK_Y47]: the enrichment score is inactive: 0.449.

GLSDLYVKIHL [SYT2_Y309_P308L]: the enrichment score is inactive: 2.35.

The next assay deals with SHP2 N-SH2 domain L43F. Described as above. The conditions noted are these: peptide library: pTyr-Var.
As for VTVLDYDKIGK [SYT1_Y365], the enrichment score was inactive: 0.99.

With APGDAYGDAGF [SYP_Y250_YF], the enrichment score was inactive: 0.468.

Turning to RQSHNYLGGFA [SYK_Y47_R45H], the enrichment score is inactive: 0.742.

Take KEAQVYQAFRL [SUCLG2_Y343_K347R]: the enrichment score is inactive: 0.71.

Turning to SFCFRYRCAPR [SUMF1_Y344_A348P_YF], the enrichment score was inactive: 0.275.

Take GFQPEYGQPAG [SYP_Y278_D277E_YF]: the enrichment score was inactive: 0.524.

YRKNTYNVKST [SYNE2_Y575_I574T]: the enrichment score is inactive: 0.435.

As for KEAQVYQAFKL [SUCLG2_Y343], the enrichment score is inactive: 0.737.

For EYLHKYKGFKI [SYNE1_Y6953_Q6951H], the enrichment score was inactive: 0.353.

TVHCDYLNIPH [TAF1L_Y1385]: the enrichment score was inactive: 1.11.

With GESKDYALHVG [SVIL_Y185], the enrichment score is inactive: 0.713.

Regarding GLSDPYVKIHL [SYT2_Y309], the enrichment score was inactive: 1.36.

Regarding EFLQKYKGFKI [SYNE1_Y6953_YF], the enrichment score was inactive: 0.763.

For the molecule REVPVYISEDS [SYNM_Y460_G462S], the enrichment score is inactive: 0.675.

For the molecule GLSAPYVKIHL [SYT2_Y309_D307A], the enrichment score was inactive: 1.51.

AAVPAYDKIQV [STXBP2_Y401_R405Q]: the enrichment score is inactive: 0.792.

As to EFLHKYKGFKI [SYNE1_Y6953_Q6951H_YF], the enrichment score is inactive: 0.759.

In the case of RQSRNYLGGFA [SYK_Y47], the enrichment score was inactive: 0.351.

GLSDLYVKIHL [SYT2_Y309_P308L]: the enrichment score is inactive: 2.08.

A further assay has as its target SHP2 N-SH2 domain T42A. The description is as above. The conditions noted are these: peptide library: pTyr-Var.
Consider VTVLDYDKIGK [SYT1_Y365], for which the enrichment score is inactive: 0.721.

As for APGDAYGDAGF [SYP_Y250_YF], the enrichment score is inactive: 0.505.

As to RQSHNYLGGFA [SYK_Y47_R45H], the enrichment score was inactive: 0.579.

With KEAQVYQAFRL [SUCLG2_Y343_K347R], the enrichment score was inactive: 0.702.

In the case of SFCFRYRCAPR [SUMF1_Y344_A348P_YF], the enrichment score is inactive: 0.277.

For the molecule GFQPEYGQPAG [SYP_Y278_D277E_YF], the enrichment score is inactive: 0.324.

Consider YRKNTYNVKST [SYNE2_Y575_I574T], for which the enrichment score is inactive: 0.41.

With KEAQVYQAFKL [SUCLG2_Y343], the enrichment score is inactive: 0.769.

Regarding EYLHKYKGFKI [SYNE1_Y6953_Q6951H], the enrichment score was inactive: 0.688.

Regarding TVHCDYLNIPH [TAF1L_Y1385], the enrichment score is inactive: 1.32.

GESKDYALHVG [SVIL_Y185]: the enrichment score was inactive: 0.648.

In the case of GLSDPYVKIHL [SYT2_Y309], the enrichment score is inactive: 1.77.

Consider EFLQKYKGFKI [SYNE1_Y6953_YF], for which the enrichment score is inactive: 0.704.

Consider REVPVYISEDS [SYNM_Y460_G462S], for which the enrichment score was inactive: 0.578.

For the molecule GLSAPYVKIHL [SYT2_Y309_D307A], the enrichment score was inactive: 3.09.

Consider AAVPAYDKIQV [STXBP2_Y401_R405Q], for which the enrichment score is inactive: 0.797.

Turning to EFLHKYKGFKI [SYNE1_Y6953_Q6951H_YF], the enrichment score is inactive: 0.638.

As to RQSRNYLGGFA [SYK_Y47], the enrichment score was inactive: 0.286.

For GLSDLYVKIHL [SYT2_Y309_P308L], the enrichment score is inactive: 2.29.

For a further assay, the target named is SHP2 N-SH2 domain T52S. Described as above. The conditions noted are these: peptide library: pTyr-Var.
VTVLDYDKIGK [SYT1_Y365]: the enrichment score was inactive: 0.878.

As for APGDAYGDAGF [SYP_Y250_YF], the enrichment score was inactive: 0.458.

As for RQSHNYLGGFA [SYK_Y47_R45H], the enrichment score is inactive: 0.688.

With KEAQVYQAFRL [SUCLG2_Y343_K347R], the enrichment score is inactive: 0.852.

For SFCFRYRCAPR [SUMF1_Y344_A348P_YF], the enrichment score was inactive: 0.187.

Take GFQPEYGQPAG [SYP_Y278_D277E_YF]: the enrichment score is inactive: 0.536.

Consider YRKNTYNVKST [SYNE2_Y575_I574T], for which the enrichment score is inactive: 0.509.

In the case of KEAQVYQAFKL [SUCLG2_Y343], the enrichment score is inactive: 0.73.

Regarding EYLHKYKGFKI [SYNE1_Y6953_Q6951H], the enrichment score was inactive: 0.538.

On to TVHCDYLNIPH [TAF1L_Y1385], for which the enrichment score was inactive: 1.29.

In the case of GESKDYALHVG [SVIL_Y185], the enrichment score is inactive: 0.551.

In the case of GLSDPYVKIHL [SYT2_Y309], the enrichment score was inactive: 1.07.

With EFLQKYKGFKI [SYNE1_Y6953_YF], the enrichment score is inactive: 0.776.

For REVPVYISEDS [SYNM_Y460_G462S], the enrichment score is inactive: 1.04.

For GLSAPYVKIHL [SYT2_Y309_D307A], the enrichment score is inactive: 1.36.

AAVPAYDKIQV [STXBP2_Y401_R405Q]: the enrichment score is inactive: 0.705.

As for EFLHKYKGFKI [SYNE1_Y6953_Q6951H_YF], the enrichment score was inactive: 0.928.

Turning to RQSRNYLGGFA [SYK_Y47], the enrichment score was inactive: 0.376.

GLSDLYVKIHL [SYT2_Y309_P308L]: the enrichment score is inactive: 1.77.

A further assay deals with SHP2 N-SH2 domain wild-type. The description is as above. The conditions noted are these: peptide library: pTyr-Var.
Turning to VTVLDYDKIGK [SYT1_Y365], the enrichment score was inactive: 0.813.

As to APGDAYGDAGF [SYP_Y250_YF], the enrichment score is inactive: 0.541.

RQSHNYLGGFA [SYK_Y47_R45H]: the enrichment score was inactive: 0.621.

Consider KEAQVYQAFRL [SUCLG2_Y343_K347R], for which the enrichment score is inactive: 0.773.

For the molecule SFCFRYRCAPR [SUMF1_Y344_A348P_YF], the enrichment score was inactive: 0.203.

In the case of GFQPEYGQPAG [SYP_Y278_D277E_YF], the enrichment score is inactive: 0.7.

As for YRKNTYNVKST [SYNE2_Y575_I574T], the enrichment score is inactive: 0.655.

Regarding KEAQVYQAFKL [SUCLG2_Y343], the enrichment score is inactive: 0.942.

EYLHKYKGFKI [SYNE1_Y6953_Q6951H]: the enrichment score was inactive: 0.686.

Turning to TVHCDYLNIPH [TAF1L_Y1385], the enrichment score is inactive: 1.38.

Turning to GESKDYALHVG [SVIL_Y185], the enrichment score was inactive: 0.887.

Turning to GLSDPYVKIHL [SYT2_Y309], the enrichment score was inactive: 1.03.

For EFLQKYKGFKI [SYNE1_Y6953_YF], the enrichment score was inactive: 0.891.

As for REVPVYISEDS [SYNM_Y460_G462S], the enrichment score is inactive: 1.19.

GLSAPYVKIHL [SYT2_Y309_D307A]: the enrichment score is inactive: 1.42.

As for AAVPAYDKIQV [STXBP2_Y401_R405Q], the enrichment score is inactive: 1.03.

For EFLHKYKGFKI [SYNE1_Y6953_Q6951H_YF], the enrichment score is inactive: 1.12.

In the case of RQSRNYLGGFA [SYK_Y47], the enrichment score was inactive: 0.296.

Take GLSDLYVKIHL [SYT2_Y309_P308L]: the enrichment score was inactive: 2.79.
